# Measured values taken from PubChem BioAssay AID463173 (ICCB-Longwood Screening Facility, Harvard Medical School, 2010).
# About 4,300 (8.3%) of roughly 52,000 compounds were called active. Rule as the data show it: active = survival mostly below about 52% (no sharp cut-off); inactive = mostly above about 56%. This is one part of the list.
# System: DeltatarO mutant
# Assay: S. aureus survival, RN4220 and DeltatarO strains – OD600, teichoic acid synthesis inhibitors, primary screen (AID 463173)
# Conditions: S. aureus RN4220 wild type/DeltatarO growth, OD600, 18 h, active compounds read low, screened at 18.75 µg/mL (by protocol)
row,Compound,survival
1,COC(=O)c1c(NC(=O)COc2cccc(C(F)(F)F)c2)sc2c1CCCC2,inactive: 49%
2,N#CC1=C(N)c2ccccc2CC12CCCCC2,active: 31%
3,O=C(CSc1ccccn1)N1CCc2ccccc21,inactive: 86%
4,O=C(COc1ccc(Cl)cc1Cl)Nc1cccc2cccnc12,inactive: 79%
5,COC(=O)C1=C(C)NC(C)=C(C(=O)OC)C1c1cc2ccc(OC)cc2[nH]c1=O,inactive: 101%
6,Cc1c(C(=O)OC2CCCCCC2)[nH]c2c1C(=O)CC(c1ccc(Cl)cc1)C2 (stereo not drawn),inactive: 129%
7,Cc1ccc2c(c1)C(=O)OC(C(=O)Nc1ncc(Cc3ccc(Cl)cc3)s1)C2 (stereo not drawn),inactive: 87%
8,Cc1cccc(C)c1-n1ncc(C(=O)NC2CCCC2)c1C1CCN(C(=O)OC(C)(C)C)CC1,inactive: 94%
9,CCOc1ccc(NC(=O)NCc2cccn2Cc2ccccc2)cc1,inactive: 72%
10,O=C(c1ccc2c(c1)CCN2S(=O)(=O)c1ccc(Cl)cc1)N1CCN(c2ccc(F)cc2)CC1,inactive: 74%
11,C/C(=N\NC(=O)CNc1ccccc1)c1ccccc1,inactive: 85%
12,CCOC(=O)CNC(=O)N1[C@H](c2cccs2)[C@@H](C)C(=O)[C@@H](C)[C@@H]1c1cccs1,active: 55%
13,COc1cc(NC(=O)c2nc3nc(C)cc(C(F)F)n3n2)c(OC)cc1Cl,inactive: 87%
14,CCOc1ccc(N2CC(NC(=O)C3CCCCC3)CC2=O)cc1 (stereo not drawn),inactive: 75%
15,Cc1ccc(CNC(=O)c2ccc(CN3CC(=O)N4CCCCC4C3=O)cc2)cc1 (stereo not drawn),inactive: 60%
16,COc1ccc(Nc2c(-c3ccc(C)o3)nc3cc(C)ccn23)cc1,inactive: 75%
17,Cc1cc(C)cc(NC(=O)Cn2cc(C(=O)c3cccs3)c3ccccc32)c1,inactive: 60%
18,Cc1ccc2oc(-c3ccc(C)c(NC(=O)/C=C/c4ccc(Cl)cc4)c3)nc2c1,inactive: 90%
19,Cc1ccc2[nH]c3c(=O)n(CC(=O)N(CCN(C)C)Cc4ccccc4)ncc3c2c1,inactive: 97%
20,CC(=O)N1CCC(N(Cc2ccco2)C(=O)Nc2ccc(C)c(Cl)c2)CC1,inactive: 128%
21,COc1ccc(OC)c(NC(=O)CSc2nnc(CNc3ccc(C)cc3C)n2CC2CCCO2)c1 (stereo not drawn),inactive: 100%
22,O=C(CCCCCn1c(=O)c2sccc2n(Cc2ccc(Cl)cc2)c1=O)NCc1ccc2c(c1)OCO2,inactive: 64%

row,Compound,survival
1,Cc1ccc(S(=O)(=O)N(CC(=O)NCCSc2ccc(Cl)cc2)c2ccccc2C)cc1,inactive: 58%
2,COc1ccc(Cl)cc1C(=O)Nc1nnc2n1CCS2,inactive: 75%
3,Cc1ccc(NC(=O)C2CCN(c3nnc(C)c4c(C)n(-c5ccccc5)nc34)CC2)c(Cl)c1,inactive: 79%
4,CC(C)CCNC(=O)Cn1c(-c2cccs2)cc2cc(F)ccc21,inactive: 94%
5,Cc1cc(Br)ccc1NC(=O)c1sc2nc3n(c(=O)c2c1C)CCCC3,inactive: 74%
6,CCCCOc1ccc(Cn2c(=O)oc3ccc(C)cc32)cc1OC,active: 36%
7,CCc1nnc(NC(=O)c2nc(SCc3ccccc3F)ncc2Cl)s1,active: 31%
8,COc1ccc(S(=O)(=O)N2CCN(c3cccc(C)c3C)CC2)c2ccccc12,inactive: 152%
9,COc1ccc2c(c1)c(=O)c(C(=O)c1ccc(F)cc1)cn2CC(=O)Nc1ccc2c(c1)OCO2,inactive: 94%
10,S=C1NC2=C(CCCC2)C2(CCCCC2)N1,inactive: 71%
11,Cc1cccc(N2CCn3c2nc2c3c(=O)n(C/C=C/c3ccccc3)c(=O)n2C)c1,inactive: 75%
12,CC(C)c1ccc(NC(=O)N2c3ccccc3Sc3ccccc32)cc1,active: 6%
13,C=Cc1ccc(Cn2c(=O)n(-c3cccc(Cl)c3)c(=O)c3c4c(sc32)CN(C(C)=O)CC4)cc1,inactive: 65%
14,COCCCNC(=O)CCn1c(=O)c2ccccc2n(CC(=O)Nc2cc(Cl)ccc2OC)c1=O,inactive: 96%
15,CCN(Cc1ccccc1)Cc1c(O)ccc2oc(C)c(C(=O)Nc3ccc(C)cc3C)c12,active: 33%
16,O=C(/C=C/c1ccccc1Cl)Nc1nc(-c2cccs2)ns1,inactive: 68%
17,CC(Oc1ccccc1)C(=O)Nc1c[nH]c(=O)[nH]c1=O (stereo not drawn),inactive: 85%
18,COC1CCC(C(=O)Nc2nc(-c3ccc4c(c3)CCN4S(C)(=O)=O)cs2)CC1 (stereo not drawn),inactive: 90%
19,COc1ccc(NC(=O)N2CCN(S(=O)(=O)c3ccc4c(ccn4C)c3)CC2)c(OC)c1,inactive: 95%
20,COc1cccc(CNC(=O)C(C)n2c(=O)cc(-c3ccccc3)c3c(C)nn(C)c32)c1 (stereo not drawn),inactive: 84%
21,Cc1nc2ccn(Cc3ccco3)c(=O)c2cc1C(=O)N1CCN(c2ccc(F)cc2)CC1,inactive: 135%
22,CCc1nnc(NC(=O)c2c(O)c3ccccc3n(C)c2=O)s1,active: -1%

row,Compound,survival
1,CC(C)c1ccc(N2C(=O)CSC23C(=O)N(Cc2ccccc2)c2ccccc23)cc1 (stereo not drawn),inactive: 69%
2,Cc1ccc(NC(=O)Cn2c(=O)n(Cc3nc(C)no3)c(=O)c3cc4c(cc32)OCO4)cc1,inactive: 91%
3,CCCC(CCC)C(=O)NC1CC(=O)N(c2ccc3c(c2)OCCO3)C1 (stereo not drawn),inactive: 105%
4,O=C(Nc1nnc(S(=O)(=O)N2CCc3ccccc32)s1)c1cccc(Cl)c1,active: 1%
5,CCOC(=O)c1cccc(N2C(=O)C3C(C(=O)NC4CC4)C4(C)C=CC3(O4)C2C(=O)NC(C)(C)C)c1 (stereo not drawn),inactive: 92%
6,COc1ccc(NC(=O)C2CCCN(c3nnc(C)c4c(C)n(-c5ccccc5)nc34)C2)cc1Cl (stereo not drawn),inactive: 102%
7,CCOc1ccc(CC(=O)Nc2c(C(=O)c3ccccc3)oc3ccc(OC)cc23)cc1OCC,inactive: 69%
8,CCc1ccccc1NC(=O)Cn1c(=O)n(Cc2ccc(OC)cc2)c(=O)c2oc3ccccc3c21,inactive: 70%
9,CN(Cc1ccccc1)C(=O)CSc1nc(-c2ccc(F)cc2)cc(C(F)(F)F)n1,active: 31%
10,O=C(COc1ccc(Cl)cc1)Nc1ccccc1OCc1cc(=O)n2ccccc2n1,inactive: 86%
11,CCc1ccc(NC(=O)C(CC)n2c(=O)c(-c3ccccc3NC(C)=O)nc3ccccc32)cc1 (stereo not drawn),inactive: 65%
12,C#CCSc1cccc2cccnc12,inactive: 108%
13,CCN(CC)c1ccc(NC(=O)C2CCN(S(=O)(=O)c3cnc[nH]3)CC2)c(C)c1,inactive: 97%
14,CCOC(=O)c1c(C)c(-c2ccccc2)n(CC(=O)NC(CC)Cc2ccccc2)c1C (stereo not drawn),inactive: 108%
15,O=C(CSc1nc(-c2ccc(F)cc2)[nH]c1-c1ccc(F)cc1)Nc1ccc2c(c1)OCCO2,inactive: 76%
16,Nc1nonc1-n1nnc(CO)c1CO,inactive: 63%
17,Cc1ccc(C)c(N2CCN(C(=O)c3cnn(-c4ccccc4Cl)c3C3CCN(C(=O)OC(C)(C)C)CC3)CC2)c1,inactive: 80%
18,O=C1OC(C(=O)Nc2cc(C(F)(F)F)ccc2Cl)Cc2ccccc21 (stereo not drawn),active: 56%
19,COc1ccc(Cc2nc3ccc(C(=O)NCc4ccccc4Cl)cc3o2)cc1,inactive: 66%
20,Cc1ccc(NC(=O)CS(=O)CC(=O)Nc2ccc3c(c2)CCC3)cc1 (stereo not drawn),inactive: 85%
21,Cc1cccc(OCC(=O)Nc2cccc3cccnc23)c1C,active: 60%
22,CCOC(=O)c1c(NC(=O)c2ccccc2OCC)sc2c1CCC(CC)C2 (stereo not drawn),active: -2%

row,Compound,survival
1,COc1ccc(N2CCN(C(=O)CCc3c(C)nc4cc(-c5ccc(OC)cc5OC)nn4c3C)CC2)cc1,inactive: 104%
2,CN(C)S(=O)(=O)c1ccc(C(=O)NCCSc2c(-c3ccc(Cl)cc3)[nH]c3ccccc23)cc1,inactive: 67%
3,CCCOc1ccc(C2C(=O)N(C3CCCCCC3)CC(=O)N2CCC)cc1OC (stereo not drawn),active: -4%
4,COc1cccc(C(=O)Nc2ccc3oc(-c4cccc5c(Br)cccc45)nc3c2)c1,inactive: 59%
5,COc1ccccc1N1CCN(C(=O)c2cnn(-c3ccc(F)cc3F)c2C2CCNCC2)CC1,active: 32%
6,COc1ccc(S(=O)(=O)NCC(c2ccc(N(C)C)cc2)N2CCc3ccccc32)cc1OC (stereo not drawn),inactive: 95%
7,CCOC(=O)c1ccccc1NC(=O)Cn1c2ncccc2c(=O)n1-c1ccccc1,inactive: 98%
8,COc1ccc(C(=O)NCC23C=CC(O2)C2C(=O)N(c4ccccc4C)C(=O)C23)cc1 (stereo not drawn),inactive: 96%
9,CC(CN=CC1=C(O)CC(C)(C)CC1=O)N=CC1=C(O)CC(C)(C)CC1=O (stereo not drawn),inactive: 101%
10,CCN(Cc1ccccc1)C(=O)CN1C(=O)COc2ccc(S(=O)(=O)N3CCCCCC3)cc21,inactive: 95%
11,CCn1cc2nc(SCc3ccccc3F)n(Cc3ccc(C)cc3)c(=O)c2n1,inactive: 73%
12,Cc1ccc(NC(=O)CCS(=O)(=O)c2cccc3nsnc23)c(C)c1,inactive: 61%
13,CCOc1ccc(NC(=O)CCS(=O)(=O)c2ccc3c(c2)n(C)c(=O)c(=O)n3C)cc1,inactive: 87%
14,Cc1ccc2cccc(NC(=O)C(C)(C)Oc3ccc(Br)cc3)c2n1,inactive: 63%
15,CCCS(=O)(=O)Nc1cc2c(cc1NCc1ccccc1)n(C)c(=O)n2C,inactive: 82%
16,CCOc1ccc(NC(=O)CSc2nc(-c3ccc(F)cc3)cc(C(F)(F)F)c2C#N)cc1,inactive: 124%
17,Cc1cccc(C)c1NC(=O)Cn1nc(C)c2sc3ccccc3c2c1=O,inactive: 99%
18,COc1ccc(-c2cn3c(n2)sc2cc(C(=O)Nc4cc(Cl)ccc4C)ccc23)cc1,inactive: 57%
19,CCc1ccc(C(=O)Nc2ccc3nn(-c4ccc(C)c(Cl)c4)nc3c2)cc1,inactive: 101%
20,O=C(NC(CO)C(=O)O)c1ccncc1 (stereo not drawn),inactive: 94%
21,Cc1ccc(CN2CCc3nc(SCC(=O)Nc4cccc(C)c4C)[nH]c(=O)c3C2)cc1,inactive: 82%
22,CCOC(=O)CSc1nc2ccc(NC(=O)c3ccccc3)cc2s1,inactive: 77%
